Source: the RNAGym collection of RNA variant scans (doi:10.1073/pnas.2313332121)
Variants at the background level are over-represented here.

B1: TPR 5TU (parent)
chain: GGAUCUUCUCGAUCUAACAAAAAAGACAAAUCUGCCACAAAGCUUGAGAGCAUCUUCGGAUGCAGAGGCGGCAGCCUUCGGUGGCGCGAUAGCGCCAACGUUCUCAACUAUGACACGCAAAACGCGUGCUCCGUUGAAUGGAGUUUAUCAUG

Variants of: B1
Test: polymerase ribozyme fitness, log enrichment relative to wild type (log ratio); higher = more active; in vitro selection for triplet polymerase activity
In short: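 Streptavidin-bead capture of gel-excised extended constructs, followed by RT-PCR, closed a single triplicate in vitro selection round. That round began by annealing PCR-built, transcribed mutant libraries of each subunit of a heterodimeric triplet polymerase ribozyme with a biotinylated primer, the partner subunit and triplets, then incubating them frozen at −7 °C. After Illumina sequencing of inputs and outputs, genotypes needed ≥10 input reads and ≥1 read per output. Fitness is the base-2 logarithm of genotype enrichment over wild-type enrichment, using inverse-variance-weighted replicate averages.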

Variant	polymerase ribozyme fitness (log ratio)
A29U A41U C69U C95A C118G C125U U148A	≤ -4.2
A30G A64G G136C	-4.07
A29U G65A C87A A91C U109G	≤ -4.2
A29U G92A	≤ -4.2
A28U A49C C103G	≤ -4.2
A28U A40U G50A G58A U101G U130A	≤ -4.2
A28U G42A G74U	≤ -4.2
A29U G50U C116U A147U	-4.04
A28U A41C G86A C105U C114U U146G	≤ -4.2
A30U C54U A73G C95A C116U	-4.03
A28U C93U C118U A121G	≤ -4.2
A29C U55A A91C C93G	≤ -4.2
A29U G59A G83C C125U	≤ -4.2
A28U G83C G92U C96U	≤ -4.2
A30U A49G A52G G58C U78A A110U C123U A142C	≤ -4.2
A29C G34C G58C	≤ -4.2
A29G A60U C131G	≤ -4.2
A29U G46C A52C G92C A122U	≤ -4.2
A29U C32A A66C C87U C105U	≤ -4.2
A29U A64U G80A	≤ -4.2
A29U G46U C96G U146C U148G U151C	≤ -4.2

Variant	polymerase ribozyme fitness (log ratio)
A30U A39U G67A C95A A106C	≤ -4.2
A30G A91U A137G G141U	≤ -4.2
A29C A49G C54U C105U	≤ -4.2
A29U U53C U78C C103A C114G G126A	≤ -4.2
A30U A52U G70A	≤ -4.2
A29G G50C G71U C95U C114A A138G C149U	≤ -4.2
A30G A47U A64G G94A	-3.57
A28U U44A C93A	≤ -4.2
A29C A40C A52C C87U A97G C99G A115U	≤ -4.2
A29C A49U A52U G83C C99A U144C U145A	≤ -4.2
A30G G48A G80U G88U U109C	≤ -4.2
A29G C57U G80A U111C C118U	≤ -4.2
A29U A52C G58C C79A G84A A142G	≤ -4.2
A29G A30U C85A A107U C118G	≤ -4.2
A29C C38U C54A U55A C75G C132G U134C	≤ -4.2
A30C C38A G50U U56A U109C U127A	≤ -4.2
A29G G59A U77A C93U G100A U109G C116U G126U	≤ -4.2
A28U A52G A97U A113U U134C	≤ -4.2
A30G A52C U53A C54G C57U G94C C96G U144A	≤ -4.2
A29C C43U G48C U61G C96U	≤ -4.2
A30G G62C A66U C105G U134C	≤ -4.2

Variant	polymerase ribozyme fitness (log ratio)
A28U C38A A41C A91U C132U U135G	≤ -4.2
A30U C72A C87U C95A U102A C114U G140U	≤ -4.2
A29U U56A A89G C96A U101G A142U	≤ -4.2
A30G C54G A121U U139A U145C	≤ -4.2
A29G C51G U56A C93A C95G C149G G152A	≤ -4.2
A29U C96U	-3.19
A28U A49G C51U C87A C123A G124A A150C G152U	≤ -4.2
A29U U53G G81A G88C	≤ -4.2
A28U G68U C99U A110G	≤ -4.2
A29G G68A G83C C105A G141C	≤ -4.2
A30G A40G C76A G92C	≤ -4.2
A30C G46C C95A U104C C114U A142C	≤ -4.2
A28U U56A C79U C93U C125U	≤ -4.2
A28U A41U C57A G70C G88U A89U C95A	≤ -4.2
A29U G88C U111G U145C U148C	≤ -4.2
A29G A37C G68C C85A A106U U134C	≤ -4.2
A29U G84A C96G U139G	≤ -4.2
A29C C38U A39C C96A C103U U111G A138G	≤ -4.2
A28U U77A G83U U134A	≤ -4.2
A29C G50C C79G A115U	≤ -4.2
A29G A39G U82A G86U U135C	≤ -4.2

Variant	polymerase ribozyme fitness (log ratio)
A30U C57G C79G C85G U101G C108G A138C	≤ -4.2
A29C C131U G140U	≤ -4.2
A29U U45G G86C U148A	≤ -4.2
A30C A39U G59A U82G C87U G117U G140A G143U	≤ -4.2
A30C C35U G86A U90G	≤ -4.2
A28U C43U G58C A66C G68C C85U C108A	≤ -4.2
A30G U53G A73U U82G G112U A120G G128U	≤ -4.2
A30G C87U U101A U109C A115U A120U A122U U145G G152A	≤ -4.2
A30C G48U A49C C95G C114G U139A	≤ -4.2
A30U A64G C75G C79U U102G C125A	≤ -4.2
A29U A40G A41U	≤ -4.2
A28U A41C C57A	≤ -4.2
A30C G48C C51A U55A G71A A91C	≤ -4.2
A29G U33C U53A C79U A113U	≤ -4.2
A29U C85A C95U A119C	≤ -4.2
A30U A40G G50C G67A C76A C85U A89C C132U	≤ -4.2
A29C A37U U45G G83A A113G A147U	≤ -4.2
A29G C95G C118G G133A	≤ -4.2
A29G U45G C96G	≤ -4.2
A30G C35G G59C A60G G80A G92C G124U C129G	≤ -4.2
